The other results are listed elsewhere or left out. Cut-off read from the data, not from the text of the source: active = 3.2 or more and inactive = the rest. The signal is at background level for most entries.
The binders below were run against SHP2 C-SH2 domain E139D (assay: enrichment score (SH2-bound / input frequency) (ratio); bacterial display of known human phosphotyrosine sites (pTyr-Var adds point mutants) read by sequencing; higher = stronger binding; tyrosines were phosphorylated by kinases first). Conditions: peptide library: pTyr-Var.
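Note: displayed peptides selected on beads carrying the immobilized SH2 domain, with library peptides lacking any tyrosine serving as negative controls.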

Enrichment score, inactive:
MFFSKYDRDND [FGB_Y408_T407K] 1.26
IALSKYGRVKR [FGF6_Y186] 0.371
TRSFDYMEGED [FGF7_Y58_G62E_YF] 0.693
REENGYNTYAS [FGF10_Y161_I156R] 0.529
WKGSWYSMRKM [FGB_Y475] 2.71
REENGYNTFAS [FGF10_Y161_I156R_YF] 0.613
YASALYRQRRS [FGF11_Y162] 0.26
RHTRSYDFMEG [FGF7_Y56_YF] 1.15
GFKVRYATWSI [FGFR1_Y210_YF] 2.8
NEANKYQISVN [FGB_Y368] 0.66
IHHIDYFKKTT [FGFR1_Y653_YF] 1.21
IHHIDYYKKTT [FGFR1_Y653] 1.01
HHIDYYKKTTN [FGFR1_Y654] 0.674
GYKVRYATGSI [FGFR1_Y210_W213G] 1.38
TRSYDYMEGED [FGF7_Y58_G62E] 0.525
KLFRVYCDMNT [FGB_Y269_P265L_YF] 0.954
TRSFDYTEGGD [FGF7_Y58_M59T_YF] 0.83
RHTRSYDYTEG [FGF7_Y56_M59T] 0.671
YASALYGQRRS [FGF11_Y162_R163G] 0.248

Each binder was assayed against SHP2 C-SH2 domain wild-type in the same assay as above. Conditions: peptide library: pTyr-Var.

Enrichment score, inactive:
MFFSKYDRDND [FGB_Y408_T407K] 1.15
IALSKYGRVKR [FGF6_Y186] 0.287
TRSFDYMEGED [FGF7_Y58_G62E_YF] 0.655
REENGYNTYAS [FGF10_Y161_I156R] 0.43
WKGSWYSMRKM [FGB_Y475] 2.33
REENGYNTFAS [FGF10_Y161_I156R_YF] 0.457
YASALYRQRRS [FGF11_Y162] 0.2
RHTRSYDFMEG [FGF7_Y56_YF] 1.05
GFKVRYATWSI [FGFR1_Y210_YF] 2.65
NEANKYQISVN [FGB_Y368] 0.702
IHHIDYFKKTT [FGFR1_Y653_YF] 1.08
IHHIDYYKKTT [FGFR1_Y653] 0.724
HHIDYYKKTTN [FGFR1_Y654] 0.519
GYKVRYATGSI [FGFR1_Y210_W213G] 0.974
TRSYDYMEGED [FGF7_Y58_G62E] 0.613
KLFRVYCDMNT [FGB_Y269_P265L_YF] 0.943
TRSFDYTEGGD [FGF7_Y58_M59T_YF] 0.682
RHTRSYDYTEG [FGF7_Y56_M59T] 0.75
YASALYGQRRS [FGF11_Y162_R163G] 0.217

The binders below were run against SHP2 N-SH2 domain L43F in the same assay as above. Conditions: peptide library: pTyr-Var.

Enrichment score, inactive:
MFFSKYDRDND [FGB_Y408_T407K] 1.19
IALSKYGRVKR [FGF6_Y186] 0.283
TRSFDYMEGED [FGF7_Y58_G62E_YF] 0.514
REENGYNTYAS [FGF10_Y161_I156R] 0.598
WKGSWYSMRKM [FGB_Y475] 2.26
REENGYNTFAS [FGF10_Y161_I156R_YF] 0.529
YASALYRQRRS [FGF11_Y162] 0.228
RHTRSYDFMEG [FGF7_Y56_YF] 1.03
GFKVRYATWSI [FGFR1_Y210_YF] 2.61
NEANKYQISVN [FGB_Y368] 0.667
IHHIDYFKKTT [FGFR1_Y653_YF] 1.33
IHHIDYYKKTT [FGFR1_Y653] 1.18
HHIDYYKKTTN [FGFR1_Y654] 0.39
GYKVRYATGSI [FGFR1_Y210_W213G] 1.07
TRSYDYMEGED [FGF7_Y58_G62E] 0.705
KLFRVYCDMNT [FGB_Y269_P265L_YF] 0.838
TRSFDYTEGGD [FGF7_Y58_M59T_YF] 0.744
RHTRSYDYTEG [FGF7_Y56_M59T] 0.466
YASALYGQRRS [FGF11_Y162_R163G] 0.278

What follows are binders tested against SHP2 N-SH2 domain T42A in the same assay as above. Conditions: peptide library: pTyr-Var.

Enrichment score, inactive:
MFFSKYDRDND [FGB_Y408_T407K] 1.09
IALSKYGRVKR [FGF6_Y186] 0.379
TRSFDYMEGED [FGF7_Y58_G62E_YF] 0.422
REENGYNTYAS [FGF10_Y161_I156R] 0.45
WKGSWYSMRKM [FGB_Y475] 2.58
REENGYNTFAS [FGF10_Y161_I156R_YF] 0.449
YASALYRQRRS [FGF11_Y162] 0.238
RHTRSYDFMEG [FGF7_Y56_YF] 0.967
GFKVRYATWSI [FGFR1_Y210_YF] 2.57
NEANKYQISVN [FGB_Y368] 0.647
IHHIDYFKKTT [FGFR1_Y653_YF] 1.61
IHHIDYYKKTT [FGFR1_Y653] 0.625
HHIDYYKKTTN [FGFR1_Y654] 0.478
GYKVRYATGSI [FGFR1_Y210_W213G] 1.02
TRSYDYMEGED [FGF7_Y58_G62E] 0.631
KLFRVYCDMNT [FGB_Y269_P265L_YF] 0.861
TRSFDYTEGGD [FGF7_Y58_M59T_YF] 0.392
RHTRSYDYTEG [FGF7_Y56_M59T] 0.604
YASALYGQRRS [FGF11_Y162_R163G] 0.248

Each binder was assayed against SHP2 N-SH2 domain T52S in the same assay as above. Conditions: peptide library: pTyr-Var.

Enrichment score, inactive:
MFFSKYDRDND [FGB_Y408_T407K] 1.2
IALSKYGRVKR [FGF6_Y186] 0.306
TRSFDYMEGED [FGF7_Y58_G62E_YF] 0.956
REENGYNTYAS [FGF10_Y161_I156R] 0.568
WKGSWYSMRKM [FGB_Y475] 2.23
REENGYNTFAS [FGF10_Y161_I156R_YF] 0.622
YASALYRQRRS [FGF11_Y162] 0.223
RHTRSYDFMEG [FGF7_Y56_YF] 1.12
GFKVRYATWSI [FGFR1_Y210_YF] 2.52
NEANKYQISVN [FGB_Y368] 0.518
IHHIDYFKKTT [FGFR1_Y653_YF] 1.3
IHHIDYYKKTT [FGFR1_Y653] 0.992
HHIDYYKKTTN [FGFR1_Y654] 0.785
GYKVRYATGSI [FGFR1_Y210_W213G] 1.19
TRSYDYMEGED [FGF7_Y58_G62E] 0.513
KLFRVYCDMNT [FGB_Y269_P265L_YF] 0.816
TRSFDYTEGGD [FGF7_Y58_M59T_YF] 0.707
RHTRSYDYTEG [FGF7_Y56_M59T] 0.673
YASALYGQRRS [FGF11_Y162_R163G] 0.261

These binders were tested against SHP2 N-SH2 domain wild-type in the same assay as above. Conditions: peptide library: pTyr-Var.

Enrichment score, inactive:
MFFSKYDRDND [FGB_Y408_T407K] 1.18
IALSKYGRVKR [FGF6_Y186] 0.328
TRSFDYMEGED [FGF7_Y58_G62E_YF] 0.861
REENGYNTYAS [FGF10_Y161_I156R] 0.615
WKGSWYSMRKM [FGB_Y475] 2.3
REENGYNTFAS [FGF10_Y161_I156R_YF] 0.576
YASALYRQRRS [FGF11_Y162] 0.269
RHTRSYDFMEG [FGF7_Y56_YF] 0.859
GFKVRYATWSI [FGFR1_Y210_YF] 2.67
NEANKYQISVN [FGB_Y368] 0.918
IHHIDYFKKTT [FGFR1_Y653_YF] 1.32
IHHIDYYKKTT [FGFR1_Y653] 0.713
HHIDYYKKTTN [FGFR1_Y654] 0.895
GYKVRYATGSI [FGFR1_Y210_W213G] 1.11
TRSYDYMEGED [FGF7_Y58_G62E] 0.628
KLFRVYCDMNT [FGB_Y269_P265L_YF] 1.03
TRSFDYTEGGD [FGF7_Y58_M59T_YF] 0.629
RHTRSYDYTEG [FGF7_Y56_M59T] 0.628
YASALYGQRRS [FGF11_Y162_R163G] 0.293
